# Conditions: buffer; pH 7.4; 200.0 µM
row,Compound,solubility kinetic [µg/mL]
1,NC(=O)NCC(=O)N1CCN(S(=O)(=O)c2ccc(Cl)s2)CC1,52.7
2,O=C(CCN1CCN(c2ccccc2)CC1)c1ccc(Cl)cc1,47.5
3,Cc1noc(C(=O)Nc2cccc(O)c2)c1Cl,28.9
4,CCN1CCN(C(=O)NCc2ccccc2)CC1,31
5,CC(=O)CCc1oc2ccc([N+](=O)[O-])cc2c1-c1ccc(C)o1,3.1
6,O=C(c1ccccn1)N1CC=C(c2ccccc2)CC1,37.8
7,CC1CCCC(C)N1C(=S)NCc1ccco1 (stereo unspecified),24.1
8,CC(=O)NCCOc1nc(N2CCCCC2)nc(N2CCCCC2)n1,> 52.3
9,COCC(C)n1c(C)cc(C(=O)CSc2ncccn2)c1C (stereo unspecified),> 47.9

# Further lines, results first:
row,solubility kinetic [µg/mL],Compound
1,2.4,COc1ccc(CN(Cc2cccn2C)S(=O)(=O)c2ccccc2)cc1
2,> 33,Cc1cc2c(c(SCC#N)n1)C(=O)OC2
3,> 58.3,O=C(CNC(=O)c1cccc([N+](=O)[O-])c1)OCCCC(=O)c1ccc(F)cc1
4,> 50.2,Cc1ccc(CNC(=O)CNC(=O)c2c(C)nn(C)c2Cl)cc1
5,> 49,O=C(O)c1ccc(N=C2SCC(=O)N2Cc2ccccc2)cc1
6,0.2,Cc1ccccc1NC(=O)Nc1ccccc1N1CCCCC1
7,> 40.4,COc1ccc(/C(C)=N/NC(=O)c2ccncc2)cc1
